{"source": "PubChem BioAssay AID485281", "about": "(National Center for Advancing Translational Sciences (NCATS), 2010)", "note": "Among all 350,000 compounds or so, about 260 (0.074%) were called active. Inconclusive means that the source gave no clear call. Such entries were picked first, then a sample of the others. The call rests on the fitted dose curve; in most records, active means well fitted inhibition curve with a large enough effect; inconclusive means small, poorly fitted or top-dose-only effect; inactive means no such curve, though single readings can be large or run the other way. Potencies beside an inconclusive call are fits to weak or partial responses and may not hold up. On the % scale 0 is the no-effect control and ±100 the full control effect; potency means the concentration at half of the fitted maximal effect; tags describe the fitted curve by direction and shape."}
{"molecular_target": "Ferritin light chain (Equus caballus) (UniProt P02791)", "sequence (P02791 whole entry, looked up)": "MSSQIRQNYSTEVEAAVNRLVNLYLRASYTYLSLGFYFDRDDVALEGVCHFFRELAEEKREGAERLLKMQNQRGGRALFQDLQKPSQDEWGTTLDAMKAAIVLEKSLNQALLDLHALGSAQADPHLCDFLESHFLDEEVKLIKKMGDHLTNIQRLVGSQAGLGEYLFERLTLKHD", "assay": "qHTS Assay for Identification of Novel General Anesthetics; further: nearly all actives have a fitted effect of over 20% in size", "conditions": "apoferritin/1-aminoanthracene competitive binding, fluorescence; activity change, negative = displacement: at 77.5 µM (top of the series)", "how_it_was_run": "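Horse-spleen apoferritin (10 uM) was mixed with 50% saturated 1-aminoanthracene in PBS, exposed to compounds for 10 min at room temperature, and read for fluorescence (ex 380 nm, em 535 nm). Competitive displacement was fitted with a four-parameter Hill equation.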"}
{"compound": "Cc1ccc(-c2noc(CCC(=O)Nc3cccc(C#N)c3)n2)cc1", "Potency": "inconclusive: 35.5 µM [inhibitor, partial curve]"}
{"compound": "Cc1cc2c(cc(C(=O)OC(C(=O)NCc3ccco3)C(C)C)n2C)o1", "note": "(stereo not drawn)", "Potency": "inconclusive: 22.4 µM [inhibitor, partial curve]"}
{"compound": "CCOc1ccc(/C=C/C(=O)c2c(O)cc(C)oc2=O)cc1", "Potency": "inconclusive: 14.1 µM [inhibitor, partial curve]"}
{"compound": "O=C(NCC(c1ccco1)S(=O)(=O)c1cccs1)c1c(F)cccc1F", "note": "(stereo not drawn)", "activity change, negative = displacement": "inactive: 7.18%"}
{"compound": "CC(C)c1nc(SCC(=O)Nc2ccc(N(C)C)cc2)c2ccccc2n1", "Potency": "inconclusive: 25.1 µM [inhibitor, partial curve]"}
{"compound": "COc1ccccc1N1CCN(C(=O)c2cccc(N3C(=O)NC4CC3(C)Oc3c(OC)cccc34)c2)CC1", "note": "(stereo not drawn)", "Potency": "inconclusive: 35.5 µM [inhibitor, single point]"}
{"compound": "COc1ccc(Nc2cc(C)c3cc(NC(=O)COc4cccc(C)c4)ccc3n2)cc1", "activity change, negative = displacement": "inactive: 234%"}
{"compound": "C/C(=N\\OC(=O)NC1CCCCC1)c1sc(-c2ccccc2)nc1C", "Potency": "inconclusive: 22.4 µM [inhibitor, partial curve]"}
{"compound": "COc1ccc2nc(NC(=O)c3nc(S(=O)(=O)Cc4ccc(C)cc4)ncc3Cl)sc2c1", "Potency": "inconclusive: 28.2 µM [inhibitor, partial curve]"}
{"compound": "Cc1cc(/C=C2/NC(=O)NC2=O)c(C)n1-c1sc2c(c1C#N)CCCC2", "Potency": "inconclusive: 31.6 µM [inhibitor, partial curve]"}
{"compound": "CCN(CC)CCOc1ccc(/C(=C(/Cl)c2ccccc2)c2ccccc2)cc1", "Potency": "inconclusive: 15.8 µM [inhibitor, partial curve]"}
{"compound": "CCN1C(=O)/C(=C/C=C2/Sc3ccc4ccccc4c3N2CCO)SC1=S", "activity change, negative = displacement": "inactive: -7.58%"}
{"compound": "O=C(O)c1ccc(N/N=C/c2ccc(C(F)(F)F)cc2)cc1", "Potency": "inconclusive: 50.1 µM [inhibitor, single point]"}
{"compound": "Cc1cccc(Oc2cc(NC(=O)Cn3cnc([N+](=O)[O-])n3)cc([N+](=O)[O-])c2)c1", "Potency": "inconclusive: 50.1 µM [inhibitor, single point]"}
{"compound": "CC(C)NS(=O)(=O)c1ccc(NC(=S)NC(=O)c2cccc([N+](=O)[O-])c2)cc1", "Potency": "inconclusive: 15.8 µM [inhibitor, partial curve]"}
{"compound": "Cc1ccc(O)c(CNc2nc3ccccc3n2C)c1", "Potency": "inconclusive: 31.6 µM [inhibitor, partial curve]"}
{"compound": "O=C(O)[C@@H](O)[C@@H](O)[C@@H](O[C@H]1O[C@@H](CO)[C@@H](O)[C@@H](O)[C@@H]1O)[C@@H](O)CO", "activity change, negative = displacement": "inactive: -9.07% [at 29.3 µM]"}
{"compound": "O=C(NC1CCSc2ccccc21)c1cc(S(=O)(=O)N2CCOCC2)ccc1F", "note": "(stereo not drawn)", "Potency": "inconclusive: 28.2 µM [inhibitor, single point]"}
{"compound": "CCC(C)NC(=O)c1ccc(COc2ccccc2Cl)cc1", "note": "(stereo not drawn)", "Potency": "inconclusive: 14.1 µM [inhibitor, partial curve]"}
{"compound": "CC1CCCC(C)N1CCCNC(=O)c1nn(C)c2c1CSc1ccccc1-2", "note": "(stereo not drawn)", "activity change, negative = displacement": "inactive: -1.98%"}
{"compound": "O=C(O)CCc1ccc(-c2ccccc2)n1-c1cccc(C(=O)O)c1", "activity change, negative = displacement": "inactive: 3.39%"}
{"compound": "CCCc1cc(=O)[nH]c(SCC(=O)OCc2ccccc2)n1", "Potency": "inconclusive: 50.1 µM [inhibitor, single point]"}
{"compound": "CC1CCCCN1C(=O)c1cc2ccccc2cc1O", "note": "(stereo not drawn)", "Potency": "inconclusive: 31.6 µM [inhibitor, partial curve]"}
{"compound": "O=C(CCc1ccccc1)Nc1cccc([N+](=O)[O-])c1", "Potency": "inconclusive: 25.1 µM [inhibitor, partial curve]"}
{"compound": "COc1ccc(-n2c(SCC(=O)Nc3ccc4c(c3)OCO4)nc3c([nH]c4ccccc43)c2=O)cc1", "activity change, negative = displacement": "inactive: -5.97%"}
{"compound": "NC(=O)c1c(NC(=O)CSc2nnc(-c3ccco3)n2N)sc2c1CCCC2", "Potency": "inconclusive: 31.6 µM [inhibitor, single point]"}
{"compound": "Cc1cc(C)n2nc(SCC(=O)NC3CCCC(C)C3C)nc2n1", "note": "(stereo not drawn)", "Potency": "inconclusive: 17.8 µM [inhibitor, partial curve]"}
{"compound": "COc1ccc(C(=O)NCC(=O)N/N=C/c2c(C)[nH]c3ccccc23)cc1", "Potency": "inconclusive: 8.91 µM [inhibitor, partial curve]"}
{"compound": "O=C(O)CN1C(=O)COc2cc(S(=O)(=O)N3CCCC3)ccc21", "activity change, negative = displacement": "inactive: 0.991%"}
{"compound": "O=C(Nc1ccc2nc(-c3cccnc3)[nH]c2c1)C12CC3CC(CC(C3)C1)C2", "activity change, negative = displacement": "inactive: -22.7%"}
{"compound": "COc1ccc(OC(=O)c2ccc3nsnc3c2)cc1", "activity change, negative = displacement": "inactive: -14.2%"}
{"compound": "Cc1cccc2cc3c(N)c(C(=O)N4CCc5ccccc54)sc3nc12", "activity change, negative = displacement": "inactive: 2.22%"}
{"compound": "FC(F)(F)c1cc(NC2CCCCC2)ccn1", "Potency": "inconclusive: 50.1 µM [inhibitor, single point]"}
{"compound": "CCCOc1ccc(CC(=O)N/N=C\\c2ccc(F)cc2)cc1", "Potency": "inconclusive: 15.8 µM [inhibitor, partial curve]"}
{"compound": "COc1ccc(OCc2cc(C(=O)N3CCOCC3)no2)c(Cl)c1", "activity change, negative = displacement": "inactive: -2.97%"}
{"compound": "CCOc1ccc(CN2CCC(C(=O)Nc3cccc(-c4ccn[nH]4)c3)CC2)cc1Cl", "Potency": "inconclusive: 39.8 µM [inhibitor, partial curve]"}
{"compound": "COc1ccccc1Oc1ccc(N/C=C/C(=O)c2ccco2)cc1", "Potency": "inconclusive: 20 µM [inhibitor, partial curve]"}
{"compound": "COc1cccc(OCC(O)CN2CCN(CCN3C(=O)c4cccc5cccc(c45)C3=O)CC2)c1", "note": "(stereo not drawn)", "Potency": "inconclusive: 31.6 µM [inhibitor, partial curve]"}
{"compound": "CN1CCc2c(n(CC(O)CNCc3ccccc3)c3ccccc23)C1=O", "note": "(stereo not drawn)", "activity change, negative = displacement": "inactive: -11.7%"}
{"compound": "CCC1=C(OC(=O)N(CC)CC)N2C(=O)OC(=NCC3CC3)[C@]2(C)[C@H]2C1=CC[C@H]1C(=O)N(c3ccccc3)C(=O)[C@H]12", "Potency": "inconclusive: 39.8 µM [inhibitor, single point]"}
{"compound": "O=C(CCCC(=O)OCC(=O)c1ccc(F)cc1)Nc1cc(C(F)(F)F)ccc1Cl", "Potency": "inconclusive: 35.5 µM [inhibitor, single point]"}
{"compound": "O=[N+]([O-])c1c(Nc2cccc(O)c2)cc(Cl)c2nonc12", "Potency": "inconclusive: 28.2 µM [inhibitor, partial curve]"}
{"compound": "COC(=O)c1sccc1-c1ccc(/C=N/OC(=O)c2ccccc2)o1", "Potency": "inconclusive: 39.8 µM [inhibitor, single point]"}
{"compound": "CN(C)c1ccc(C2=NOC(CN3C(=O)c4ccccc4S3(=O)=O)C2)cc1", "note": "(stereo not drawn)", "Potency": "inconclusive: 11.2 µM [inhibitor, partial curve]"}
{"compound": "NNC(=O)c1cccc(COc2ccccc2Br)c1", "Potency": "inconclusive: 31.6 µM [inhibitor, partial curve]"}
{"compound": "Nc1ccccc1SCc1cc([N+](=O)[O-])cc2c1OCOC2", "Potency": "inconclusive: 50.1 µM [inhibitor, single point]"}
{"compound": "COc1cc(C=C(c2nc3ccccc3s2)c2nc3ccccc3s2)cc(OC)c1O", "Potency": "inconclusive: 35.5 µM [inhibitor, single point]"}
{"compound": "CC(C)Cn1c(CCCNC(=O)c2ccc(F)cc2)nc2ccccc21", "activity change, negative = displacement": "inactive: 39.8%"}
{"compound": "COc1cccc(NC2=Nc3cccc4cccc2c34)c1", "Potency": "inconclusive: 31.6 µM [inhibitor, single point]"}
{"compound": "Cc1ccc(-c2csc3nc4ccc(C(=O)NCCO)cc4c(=O)n23)cc1", "activity change, negative = displacement": "inactive: 121%"}
{"compound": "Cc1ccc(NC(=S)NC(=O)c2ccc(F)cc2)cc1S(=O)(=O)Nc1cccc(Cl)c1", "Potency": "inconclusive: 15.8 µM [inhibitor, partial curve]"}
{"compound": "CC1CN(C(=O)N2CCC(C(=O)NCc3cccs3)CC2)c2ccccc2O1", "note": "(stereo not drawn)", "Potency": "inconclusive: 15.8 µM [inhibitor, partial curve]"}
{"compound": "Cc1cccc(C(=O)O/N=C(\\N)Cc2cccc3ccccc23)c1", "Potency": "inconclusive: 17.8 µM [inhibitor, partial curve]"}
{"compound": "CC(C)CC1NC(=O)N(CC(=O)NC2CCCc3ccccc32)C1=O", "note": "(stereo not drawn)", "Potency": "inconclusive: 35.5 µM [inhibitor, single point]"}
{"compound": "Cc1ccc(N=N/C(=C\\O)C(=O)c2ccncc2)cc1", "Potency": "inconclusive: 44.7 µM [inhibitor, partial curve]"}
{"compound": "COc1cc(-c2nc(-c3ccccc3)c(-c3ccc(Br)cc3)[nH]2)cc(OC)c1O", "Potency": "inconclusive: 15.8 µM [inhibitor, partial curve]"}
{"compound": "Cc1cc(Br)c2[nH]c3c(c2c1)CCCC3=O", "Potency": "inconclusive: 44.7 µM [inhibitor, partial curve, poor fit]"}
{"compound": "Cc1ccc(NC(=O)N2CCc3ccccc3C2)cc1", "Potency": "inconclusive: 35.5 µM [inhibitor, partial curve]"}
{"compound": "CCc1c(C2(O)CCCCC2)[nH]c2cc(C(F)(F)F)ccc12", "Potency": "inconclusive: 50.1 µM [inhibitor, partial curve]"}
{"compound": "CC(=O)N1N=C(c2ccncc2)OC12CCCC2", "activity change, negative = displacement": "inactive: -0.919%"}
{"compound": "COc1cccc(CNC(=O)Cn2c(=O)nc(-c3ccccc3F)c3cc(Cl)ccc32)c1", "activity change, negative = displacement": "inactive: 60.9%"}
{"compound": "Cc1ccc2nc(-c3ccccc3)cc(C(=O)N3CCc4ccccc4C3)c2c1", "Potency": "inconclusive: 14.1 µM [inhibitor, partial curve]"}
{"compound": "CCCCC1=CC2=CC(=O)C(C)(OC(=O)C3CCCC3)C(=O)C2=CO1", "note": "(stereo not drawn)", "Potency": "inconclusive: 35.5 µM [inhibitor, single point]"}
{"compound": "Cc1nn(Cc2ccccc2Cl)c2sc(C(=O)Nc3nccs3)cc12", "activity change, negative = displacement": "inactive: -3.21%"}
{"compound": "COc1ccc(-n2nc(C(=O)NCC(=O)N3CCCC(C)C3)c3ccccc3c2=O)cc1", "note": "(stereo not drawn)", "Potency": "inconclusive: 35.5 µM [inhibitor, partial curve]"}
{"compound": "O=c1c2ccccc2nc(-c2ccc([N+](=O)[O-])cc2)n1O", "activity change, negative = displacement": "inactive: -1.99%"}
{"compound": "Cc1cccc(-c2nc(CS(=O)CC(=O)NC3CCCC3)c(C)o2)c1", "note": "(stereo not drawn)", "activity change, negative = displacement": "inactive: -10.2%"}
{"compound": "CCOC(=O)C1=C(NC(=S)NC(=O)c2ccccc2)c2ccccc2CC1(C)CC", "note": "(stereo not drawn)", "Potency": "inconclusive: 22.4 µM [inhibitor, partial curve]"}
